Experimental data taken from the supplement of paper PMC12340641.
Whole data set: some 1,000 compounds, median “relative growth recovery (pomalidomide 10 uM = 100%, DMSO = 0%)” near -1.6, cut for the highest 2% near 21. The list shows a part of the results.

What follows are compounds tested on HEK293FT dCK*-IKZF1 (assay: relative growth recovery (pomalidomide 10 uM = 100%, DMSO = 0%); higher = more growth rescue (IKZF1 fusion degradation)). Settings: compound concentration: 5 uM; AraC concentration: 0.3 uM; overnight pretreatment + 4 days AraC.
Experimental: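 Growth recovery screen of the molecular-glue-like (Specs) library. HEK293FT cells expressing a dCK*-IKZF1 fusion (primary) or dCK* alone (counter) were pretreated overnight with compound at 5 uM, then given 0.3 uM AraC for 4 days. Hoechst nuclei were counted by imaging. Primary: normalised to pomalidomide (100%) and DMSO (0%), mean of 2 replicates. Counter: normalised to no-AraC (100%) and AraC+DMSO (0%), single replicate.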

SMILES | relative growth recovery [%]
CCCc1cnc(Nc2cccc(C3(C(=O)OC)CCN(C(=O)C4CCCCC4)CC3)n2)s1 | -5.49
COC(=O)C1(c2cccc(Nc3ncc(C)s3)n2)CCN(C(=O)C2CCCCC2)CC1 | -8.98
Cc1cnc(Nc2cccc(C3(C(=O)O)CCN(C(=O)CC(C)(C)C)CC3)n2)s1 | 1.77
